Experimental data: PubChem BioAssay (NCATS)
Inconclusive means that the source gave no clear call. Such entries were picked first, then a sample of the others. For part of these data: A potency beside an inconclusive call is a rough fit, not a confirmed value. Activity calls are given as the source filed them. Calls follow the shape of the dose curve; as a rule, active = well fitted curve in the direction sought with a large enough effect; inconclusive = small, poorly fitted or top-dose-only effect, or another doubt; inactive = no such curve, though single readings can be large; an effect the other way counts as inactive or inconclusive.

How the values were obtained:
[1] = qHTS Assay for Identifying Gametocytocidal Compounds (AID 743244); also: potency is read from the fitted curve at half-maximal effect; details: P. falciparum 3D7 stage III-V gametocytes, alamarBlue, 72 h; max response: hits give low values
Summary of the method: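 Stage III–V gametocytes of P. falciparum 3D7 were seeded at 20,000 cells/well onto pre-dispensed compounds. After 72 h, 37 °C, 5% CO2, alamarBlue was added for another 24 h.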

[2] = qHTS assay for measurement of the activity of small molecule inhibitors on Zika virus induced Caspase-3 activity in human iPSC derived neural progenitor cells (hNPCs) (AID 1224857); also: nearly all actives have a fitted effect of over 65% in size; also: potency is read from the fitted curve at half-maximal effect
Summary of the method: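 Values are percent inhibition of virus-induced caspase-3/7 signal, scaled between uninfected cells and ZIKV-infected cells. Infection used 2 FFU/cell for 6 h after 1 h compound exposure.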

[3] = qHTS Screen of the MIPE 4.0 Collection Against Ewings Sarcoma (RDES) (AID 1259252); also: nearly all actives have a fitted effect of over 35% in size; also: potency is read from the fitted curve at half-maximal effect
Summary of the method: (§1)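 After a 4 h attachment period in RPMI/5% FBS, cells were pin-dosed with test compounds; DMSO served as negative and 9.2 uM bortezomib (final) as positive control. Luminescent CellTiter-Glo signal at 48 h defined viability.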

[4] = qHTS Screen of the MIPE 4.0 Collection Against Ewings Sarcoma (TC71) (AID 1259253); also: nearly all actives have a fitted effect of over 40% in size; also: potency is read from the fitted curve at half-maximal effect
Summary of the method: as §1

[5] = qHTS Screen of the MIPE 4.0 Collection Against Ewings Sarcoma (EW8) (AID 1259255); also: potency is read from the fitted curve at half-maximal effect; nearly all actives have a fitted effect of over 35% in size
Summary of the method: as §1

[6] = qHTS assay for cell viability of HEK293 cells (AID 743288); details: ATP luminescence (CellTiter-Glo), 18 h; max response: hits give low values; also: % is scaled to controls: 0 for no effect and ±100 for the full control effect; nearly all actives have a fitted effect of over 50% in size
Summary of the method: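 HEK293, 18 h, 37 C, ATP luminescence. Cells at 2,000/well were allowed at least 5 h to settle before dosing; CellTiter-Glo developed 30 min at RT.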
Tags tell the direction and shape of the fitted curve.

## CC(C)NCC(O)c1ccc(O)c(O)c1 (stereo unspecified)
[1]
  Potency: inconclusive: 3.16 µM [inhibitor, single point]
[2]
  Potency: inconclusive: 0.0526 µM [inhibitor, full curve, poor fit]
[3]
  Potency: inconclusive: 7.43 µM [inhibitor, partial curve, poor fit]
[4]
  Potency: active: 5.9 µM

## C[C@H](NC(=O)c1sccc1OCc1ccc(Cl)cc1)c1ccccc1
[2]
  Potency: inconclusive: 0.105 µM [inhibitor, single point]
[3]
  Potency: inconclusive: 20.9 µM [inhibitor, partial curve, poor fit]
[4]
  Potency: inconclusive: 16.6 µM [inhibitor, partial curve]
[5]
  Potency: inconclusive: 20.9 µM [inhibitor, partial curve]

## CC(=NNC(=S)N1CCC1)c1ccccn1
[2]
  Potency: active: 16.6 µM
[3]
  Potency: inconclusive: 0.0042 µM [inhibitor, full curve, poor fit]
[5]
  Potency: inconclusive: 0.0037 µM [inhibitor, full curve]

## Cc1[nH]c(=O)c(C#N)cc1-c1ccncc1
[6]
  max response: inactive: 7.32%
[2]
  Potency: inactive
[3]
  Potency: inactive
[4]
  Potency: inactive

## COc1ccc(C2Sc3ccccc3N(CCN(C)C)C(=O)C2OC(C)=O)cc1 (stereo unspecified)
[2]
  Potency: inconclusive: 23.5 µM [inhibitor, single point]
[4]
  Potency: inactive

## Cc1ccc(C)c(OCCCC(C)(C)C(=O)O)c1
[2]
  Potency: inconclusive: 35.5 µM [inhibitor, partial curve, poor fit]
[3]
  Potency: inconclusive: 37.2 µM [inhibitor, single point]
[4]
  Potency: inconclusive: 37.2 µM [inhibitor, single point]
[5]
  Potency: inconclusive: 37.2 µM [inhibitor, single point]
